Assay results reported in paper PMC4336329 (PLoS ONE, 2015).
About 2,200 (0.71%) of roughly 310,000 compounds showed an effect of 50% or more. The effect is printed as a negative number. Some of the results follow.

These molecules were tested against human ether-à-go-go-related gene (hERG) potassium channel (human, UniProt Q12809) (assay: primary screen, population patch clamp on CHO cells stably expressing hERG).
human ether-à-go-go-related gene (hERG) potassium channel, sequence (Q12809 whole entry, looked up): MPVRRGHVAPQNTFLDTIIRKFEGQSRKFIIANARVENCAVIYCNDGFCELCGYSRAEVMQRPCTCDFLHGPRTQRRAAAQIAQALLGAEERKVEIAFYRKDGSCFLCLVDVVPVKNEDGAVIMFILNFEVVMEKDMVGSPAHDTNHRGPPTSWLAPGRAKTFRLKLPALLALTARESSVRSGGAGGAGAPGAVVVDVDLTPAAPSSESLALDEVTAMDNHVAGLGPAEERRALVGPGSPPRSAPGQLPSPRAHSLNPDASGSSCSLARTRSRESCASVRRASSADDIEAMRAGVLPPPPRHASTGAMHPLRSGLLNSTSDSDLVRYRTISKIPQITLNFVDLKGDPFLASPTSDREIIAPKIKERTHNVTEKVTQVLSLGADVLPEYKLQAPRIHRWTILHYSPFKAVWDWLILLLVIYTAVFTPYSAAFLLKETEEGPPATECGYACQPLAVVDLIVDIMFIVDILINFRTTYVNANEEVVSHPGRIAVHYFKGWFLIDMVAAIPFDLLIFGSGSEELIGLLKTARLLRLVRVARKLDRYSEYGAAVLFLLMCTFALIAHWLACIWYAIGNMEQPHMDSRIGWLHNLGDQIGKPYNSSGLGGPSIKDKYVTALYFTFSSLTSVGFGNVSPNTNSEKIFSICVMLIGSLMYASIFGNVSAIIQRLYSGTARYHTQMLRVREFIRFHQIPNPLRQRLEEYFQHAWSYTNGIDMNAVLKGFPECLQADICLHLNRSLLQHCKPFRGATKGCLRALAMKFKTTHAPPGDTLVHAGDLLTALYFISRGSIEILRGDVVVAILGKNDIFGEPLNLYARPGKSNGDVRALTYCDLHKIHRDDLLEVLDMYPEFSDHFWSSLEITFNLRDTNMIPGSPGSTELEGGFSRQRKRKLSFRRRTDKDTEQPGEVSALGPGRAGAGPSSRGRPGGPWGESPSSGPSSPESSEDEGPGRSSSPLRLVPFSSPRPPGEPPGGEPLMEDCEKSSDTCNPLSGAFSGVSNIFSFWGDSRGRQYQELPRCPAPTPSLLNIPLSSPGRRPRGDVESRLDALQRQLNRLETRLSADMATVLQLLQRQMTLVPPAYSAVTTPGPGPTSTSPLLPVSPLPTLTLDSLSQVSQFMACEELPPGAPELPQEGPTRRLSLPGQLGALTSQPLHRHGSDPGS

SMILES	hERG current change (%, negative = inhibition) at 1uM [%]
Cn1c(=O)[nH]c(NCCc2ccc(O)cc2)c([N+](=O)[O-])c1=O	10.6
O=C(CSc1cn(CCNC(=O)c2c(F)cccc2F)c2ccccc12)NCC1CCCO1 (centres unmarked)	13.4
CC1(NC(=O)c2cc(S(=O)(=O)N3CCCCC3)ccc2Cl)CCS(=O)(=O)C1 (centres unmarked)	3.68
COc1ccc2[nH]cc(/C=C/C(=O)c3ccccc3)c2c1	15
O=C(NC(=S)Nc1ccc2[nH]c(=O)[nH]c2c1)c1cccc(F)c1	13.9
Cc1ccc(CNC(=O)CNC(=O)[C@@H]2Cc3ccccc3CN2)cc1	10.8
CC1CN(O)C2CCc3nonc3C12O (centres unmarked)	0.83
CCOc1ccccc1N(CC(=O)N1CCC(C)CC1)S(=O)(=O)c1ccc(C)cc1	6.58
Nc1nc(CN2CCN(c3cccc(Cl)c3)CC2)nc(N2CCCc3ccccc32)n1	6.42
CC(=O)n1c(-c2ccccc2)c(-c2ccccc2)n(C)c1=O	7.26
Cn1nc(CC(=O)NC2CCCCCC2)c2ccccc2c1=O	2.98
Cl.O=C(CN1CCCC1)Nc1ccc(Br)cc1	14.6
C=CCNC(=S)Nc1ccc2nc(C)c(C)nc2c1	12.1
O=C(Cn1nc(-c2cccc(Cl)c2)ccc1=O)Nc1ccc(C(=O)NC2CC2)cc1	14.7
CN(C)c1ccc(C(CNS(=O)(=O)c2ccc(F)cc2)c2c[nH]c3ccccc23)cc1 (centres unmarked)	11.7
COC(=O)c1ccc(CNC(=O)CNc2cc(C(F)(F)F)ccc2N2CCOCC2)cc1	9.39
CCSc1ccccc1C(=O)Nc1cccnc1	3.42
CCCCc1c(O)nc(SCC(=O)NC(C)(C)C)n(-c2ccccc2C)c1=O	11.6
Cc1cc(OCc2cc(C(=O)N3CCN(C)C(=O)[C@@H]3C)no2)cc(C)c1Cl	-0.0845

SMILES	hERG current change (%, negative = inhibition) at 1uM [%]
Cc1ccc(-c2nn(CC(=O)NC(C)c3ccccc3)c(=O)c3ccccc23)cc1 (centres unmarked)	20
CC1(C)Nc2ccccc2N(Cc2ccc([N+](=O)[O-])cc2)C1=O	-4.68
O=C(Nc1c(C(=O)Nc2ccc3c(c2)OCCO3)cnn1-c1ccccc1Cl)c1ccco1	18.2
O=C(O)CCCC(=O)NCc1c(Cl)cccc1Sc1ccc(Cl)cc1	11.4
Cc1c(C(C)C)c(=O)n(-c2ccc(S(=O)(=O)NC3CCCCC3)cc2)n1C	13.6
O=C(O)C(=O)O.OCCNCCCCOc1ccc(OCc2ccccc2)cc1	5.2
COc1cc(/C=C(/C#N)C(=O)Nc2ccc(Cl)cc2)ccc1Oc1nc(Cl)ncc1F	16.8
COc1ccc(NC(=O)Nc2c(C)n(C)n(-c3ccccc3)c2=O)cc1	-2.44
O=C(NCCCCNC(=O)c1ccc(Br)cc1)c1ccc(Br)cc1	11.5
C[C@H](NC(=O)C1CCN(S(=O)(=O)c2ccccc2)CC1)C(=O)NCc1cccc(Cl)c1	11.7
CCn1cc(/C=C(\NC(=O)c2ccc(OC)c(OC)c2)C(=O)N2CCOCC2)c2ccccc21	13.3
COc1nccnc1NS(=O)(=O)c1ccc(NC(=O)c2ccc(F)cc2)cc1	6.32
C/C(=N\Nc1nc(C(=O)O)cs1)c1ccccc1	13.7
COc1ccc(CCNS(=O)(=O)c2c(N)n(C)c(=O)n(C)c2=O)cc1OC	8.49
COc1ccc(C(=O)Nc2ccnn2C2CCN(C3CCC3)CC2)cc1	22.3
CCOc1ccc(OCCC(=O)OCC(=O)Nc2ccc3c(c2)OCO3)cc1	7.33
Cc1nn(Cc2ccccc2)c(C)c1N	3.73
COc1ccc(/C=C/C(=O)Nc2ccc(NC(C)=O)cc2)cc1S(=O)(=O)N1CCOCC1	5.62
O=C(NC1c2ccccc2-c2ccccc21)c1ccccc1	2.33

SMILES	hERG current change (%, negative = inhibition) at 1uM [%]
Cc1ccc(S(=O)(=O)N(C)C)cc1NC(=O)c1sccc1Cl	14.9
C=CCn1c(=O)c2ccccc2n2c(SCc3nnc(-c4ccccc4Br)o3)nnc12	-2.45
CCc1nn(CC(=O)O)c(=O)c2ccccc12	12.9
N#Cc1c(-c2ccccc2Cl)c2c([nH]c1=O)-c1ccccc1OC2	12.7
CCCn1c2ccccc2c2cnn(CC(=O)N3CCN(C4CCCCC4)CC3)c(=O)c21	-68.5
Cc1ccc(-c2csc(NC(=O)CN3CCC(C(N)=O)CC3)n2)cc1	16
CCOC(=O)c1oc2cccc(O)c2c1CN1CCOCC1.Cl	3.38
COc1ccc(/C(N)=N/OC(=O)CCC2CCCC2)cc1	41.6
CCc1ccc(OCCNC(=O)c2cc(SC)ccc2Cl)cc1	-0.451
COc1ccccc1/C=C/CN1CCN(Cc2ccc(C)o2)C(CCO)C1 (centres unmarked)	8.14
O=[N+]([O-])c1ccc(N2CCN(c3ccccc3F)CC2)c(S(=O)(=O)N2CCOCC2)c1	11.6
COc1ccc(-c2nc(CN3CCN(c4ncccn4)CC3)c(C)o2)cc1C	4.08
O=C(CSc1nnnn1C1CCCCC1)Nc1ccc(F)cc1	9.34
Cn1c(O)c(N=NC(=O)CNC(=O)c2ccccc2)c2ccccc21	8.62
OC1CCN(CC(O)C(F)(F)F)CC1 (centres unmarked)	11.9
Cc1cc(C)c2[nH]c(=O)c(CN(Cc3cccs3)C(=S)NCC3CCCO3)cc2c1 (centres unmarked)	6.49
COc1cccc(N2C(=O)CC(N3CCN(S(=O)(=O)c4ccccc4)CC3)C2=O)c1 (centres unmarked)	13.7
COc1ccc(Cc2nnc(NC(=O)c3ccccc3[N+](=O)[O-])s2)cc1	13.4
